# Results as given in the supplement of paper PMC3334620.
# Over roughly 33,000 sequences, “E-score (-0.5 to 0.5)” has its median near -0.032; the highest 2% begin near 0.36. The list shows a part of the results.
# Biological target: T1, Sko1 (UniProt Q02100)
# T1 sequence: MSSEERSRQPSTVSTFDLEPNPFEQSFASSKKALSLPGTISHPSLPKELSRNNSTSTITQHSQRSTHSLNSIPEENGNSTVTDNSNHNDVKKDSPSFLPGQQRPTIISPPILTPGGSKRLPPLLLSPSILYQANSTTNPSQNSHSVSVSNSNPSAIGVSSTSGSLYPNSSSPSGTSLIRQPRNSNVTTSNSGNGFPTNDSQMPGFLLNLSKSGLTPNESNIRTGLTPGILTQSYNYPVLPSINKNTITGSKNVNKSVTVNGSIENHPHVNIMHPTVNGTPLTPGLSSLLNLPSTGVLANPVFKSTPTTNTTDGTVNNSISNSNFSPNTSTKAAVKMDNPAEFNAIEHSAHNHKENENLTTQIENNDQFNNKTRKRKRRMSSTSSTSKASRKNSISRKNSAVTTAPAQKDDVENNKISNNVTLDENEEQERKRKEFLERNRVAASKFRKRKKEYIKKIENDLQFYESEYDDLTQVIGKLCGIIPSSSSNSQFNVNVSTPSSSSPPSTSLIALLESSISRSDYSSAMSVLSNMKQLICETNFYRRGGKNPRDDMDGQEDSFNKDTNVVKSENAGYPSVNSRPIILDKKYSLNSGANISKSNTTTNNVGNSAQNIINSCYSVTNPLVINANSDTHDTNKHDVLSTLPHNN
# Assay: PBM E-score (8-mer binding enrichment) (E-score (-0.5 to 0.5)); higher = stronger / more preferred TF binding; most listed sequences are background and not binding sites
# Conditions: protein concentration: 200 nM; construct: GST-full length
# Method in brief: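 Yeast transcription factors carrying a GST tag, as full-length proteins or DNA-binding domains, were produced by PURExpress in vitro transcription/translation. About 100-200 nM protein was applied to universal all-10-mer Agilent arrays, double-stranded by primer extension on fresh or once-stripped slides. Bound protein was detected with fluorescent anti-GST, and scans were normalised with masliner. The Universal PBM Analysis Suite gave each ungapped eight-base word, pooled with its reverse complement, an E-score, a modified Wilcoxon-Mann-Whitney statistic.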
row,Sequence,PBM E-score
1,GTGGTAAA,0.0542
2,ACTTCGGC,-0.00736
3,GCGATCGA,0.127
4,ATCAAACG,0.128
5,ATCCCGAT,-0.0671
6,GCTAATTA,0.192
7,ATTGAAAA,0.282
8,GAGTTTGC,-0.149
9,ATGGTGCG,-0.0974
10,ACGGCCCT,-0.16
11,CTAAGCTC,-0.188
12,CACTTAAG,0.168
13,GCCCATGA,-0.0412
14,GCACGCCC,-0.255
15,AATCATGT,0.132
16,GGTCCTCA,-0.147
17,AGGTGACA,0.118
18,ACATAACA,0.198
19,AATGGCAG,-0.17
20,AGTCACCA,-0.269
21,ATGCCTTA,0.0451
22,ATATTTGA,0.0539
23,CCCGTCTA,-0.0364
24,CGATTAAC,-0.0568
25,CATTACCG,0.00411

row,Sequence,PBM E-score
1,GAGGGGAC,-0.142
2,ACAGACCG,-0.143
3,ACACATCA,0.158
4,ACTGTCTC,-0.164
5,TCTGGACA,-0.213
6,ACAGAGCG,-0.0423
7,ATTGTGCG,0.115
8,ACTTAAGT,0.211
9,AGGATTCG,-0.0603
10,AGCTTCGA,-0.1
11,CATGAGTA,-0.0243
12,ATCACAGC,0.162
13,AATGGGCC,-0.345
14,CTGTCATA,0.141
15,ACCGGTCG,-0.217
16,CGAGAAGC,-0.209
17,CCCATCAC,-0.048
18,CCCTGATC,-0.226
19,ACTCCGCA,-0.0918
20,ACAGAACA,0.103
21,CCTGCTAC,-0.00964
22,TAGGCGCA,-0.13
23,CCATGGCA,-0.0266
24,CACAATCG,0.0159
25,GCGGAGTA,-0.186

row,Sequence,PBM E-score
1,ACCCGGGA,-0.204
2,GAAACAGC,-0.179
3,CCGCTAAC,-0.144
4,AGGTTACT,-0.114
5,GTCAGAAC,0.13
6,CAATATCA,0.172
7,CAGCGGAA,-0.153
8,GGAGTTAC,0.00614
9,GACGATTA,0.249
10,CCGACCCG,-0.0145
11,CACCCCGG,-0.219
12,GAAGACGC,0.0134
13,AATCACAC,0.184
14,GCTAAATA,0.178
15,CTATCTTA,-0.0753
16,CAAATGTA,0.244
17,CCGGGTGC,-0.277
18,CTCAACAG,-0.122
19,GAGGACAA,-0.108
20,CCCCGCGA,-0.307
21,CCCTGACA,-0.238
22,ATAGCCCA,0.00831
23,TACAACGA,0.104
24,CAATTTGA,0.0958
25,CGGAGGTC,-0.361

row,Sequence,PBM E-score
1,CGAAACCC,-0.164
2,ACACGCTG,0.0914
3,ATAAGCTC,0.066
4,ACTTCGCT,0.0397
5,CATAGTTA,0.133
6,CTGTCGGC,-0.148
7,AGCGTGGC,-0.188
8,AATCTATG,0.147
9,CCAGCTGC,-0.294
10,GATTTGAC,0.224
11,TATGGTGA,0.0155
12,CGATCCCG,-0.292
13,GAGGGGCC,-0.396
14,CTCCGCCA,-0.245
15,AATATACT,0.0894
16,CCTTACAA,-0.223
17,AGTAGTAG,-0.101
18,ACTTGCCC,-0.215
19,GCTCAGCC,-0.117
20,GGGACCAA,-0.122
21,CAAACTAA,0.144
22,AAGGATTC,-0.233
23,ACCTTCCC,-0.216
24,CTAGCACC,-0.0644
25,AAGTTCAG,0.102

row,Sequence,PBM E-score
1,AAACGCAG,0.114
2,GACTGGTA,-0.105
3,AGCACTTG,-0.253
4,AGTTAAGA,0.0298
5,CGCTGACC,-0.15
6,GGCGACCC,-0.368
7,GACCATAC,-0.081
8,ACGTTGGC,0.233
9,CGTATTGC,0.223
10,CGGGAATA,-0.111
11,AGCAGAAC,0.0202
12,CTTGGACC,-0.258
13,GGGGTTAC,-0.019
14,CGGGCGAC,-0.177
15,AGTCGTGA,-0.046
16,CTATGTGC,0.056
17,ACTAGAGA,-0.0523
18,CCGGTCTC,-0.302
19,AGCATGCG,0.0664
20,AGTACTCA,-0.13
21,GGGGGTTA,-0.319
22,CGCCGTCC,0.00089
23,CCGGGATA,-0.179
24,GTACCGGA,0.0372
25,CTACTATA,0.0747

row,Sequence,PBM E-score
1,ACAAGGAA,-0.141
2,GCGCGCAA,0.113
3,ACAATCCC,-0.132
4,AAGTTGGT,0.0333
5,CAAGTGTA,-0.126
6,AAGATGGG,-0.241
7,CGTTCTAA,0.131
8,TCACCCAA,0.114
9,GCCGTCGA,-0.11
10,GGCTCCCA,-0.34
11,ATGGAGGG,-0.334
12,ATTGCCGC,-0.201
13,CAACCACC,-0.238
14,AGTCCATG,-0.211
15,ACCTGAAC,-0.141
16,GCTGATCC,-0.214
17,AGAATAAC,-0.064
18,AAAATATC,0.11
19,CGGTACAA,0.0925
20,AGAAGCCT,-0.0527
21,CGGCCCGC,-0.223
22,CGGTAGAG,-0.202
23,AGGCTGGC,-0.251
24,AGGCCTTG,-0.277
25,AAACAACG,0.0853

row,Sequence,PBM E-score
1,GAGGTCGA,-0.137
2,GTGGATAA,0.0115
3,AACAACCT,-0.00718
4,AGGGTATC,-0.12
5,AACACGTC,0.401
6,GCATCTCC,-0.341
7,GGTAGAAA,-0.058
8,CGCCAACC,-0.135
9,ACACTCTC,-0.0798
10,AGCGAAAC,0.163
11,CCGCCACA,-0.233
12,CTTTTTCC,-0.161
13,AGATATAT,0.193
14,ATTGATCA,0.0974
15,AGTGACCC,-0.23
16,CCCAAACA,0.0672
17,CGCGATTA,0.138
18,AATATCGC,0.133
19,CCACGCGC,-0.115
20,CCGTTGTA,-0.00978
21,GCGTGTAC,0.227
22,GAGTTTCA,-0.198
